Measurements taken from the supplement of paper PMC4166925.
± gives the standard deviation of the averaged measurements. Over roughly 33,000 sequences, “E-score (dimensionless, -0.5 to 0.5)” has its median near -0.046; the highest 2% begin near 0.36. The list shows a part of the results.

Tested on: T1, SpTbr T-box DNA-binding domain (GST fusion)
T1 sequence: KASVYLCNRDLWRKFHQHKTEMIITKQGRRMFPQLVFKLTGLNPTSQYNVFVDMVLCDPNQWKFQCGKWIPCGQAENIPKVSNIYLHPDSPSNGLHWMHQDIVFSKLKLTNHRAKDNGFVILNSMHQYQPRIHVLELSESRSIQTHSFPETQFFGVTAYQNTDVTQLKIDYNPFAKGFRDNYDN
Experiment: PBM E-score of 8-mer (E-score (dimensionless, -0.5 to 0.5)); Tbr is Tbrain of the sea star Patiria miniata (Pm) or the sea urchin Strongylocentrotus purpuratus (Sp); higher = stronger binding preference; most listed sequences are background and not binding sites
Conditions: the construct has about 5 more residues each side
Experimental: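 Universal protein-binding microarray (Agilent AMADID 016060, 60-bp probes with a 35-bp variable region) incubated with 200 nM GST-fused Strongylocentrotus purpuratus Tbr T-box DNA-binding domain (residues 362-554) in PBS pH 7.5. Scored for every ungapped 8-mer (given with its reverse complement) as E-score (range -0.5 to 0.5; >0.45 counts as bound) and Z-score of median probe intensity. Two replicate arrays (datasets 1 and 2).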
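Further: protein at 200 nM in PBS on universal double-stranded arrays.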

Row | Sequence | PBM E-score of 8-mer
1 | CATCCGGA | -0.317 ± 0.011
2 | ACCCACCA | -0.134 ± 0.013
3 | ATGTCGAA | -0.0194 ± 0.026
4 | GGGGCGGA | -0.405 ± 0.0052
5 | TACACTCA | 0.137 ± 0.013
6 | AGTAGTCC | -0.153 ± 0.095
7 | CTCTAGTA | -0.225 ± 0.0014
8 | AATTCTTC | -0.131 ± 0.05
9 | ACCACGAT | 0.0598 ± 0.0037
10 | GCTCGTGA | 0.227 ± 0.015
11 | CTCTAACA | 0.199 ± 0.018
12 | AAGTGGCG | 0.362 ± 0.0062
13 | CATTCTGG | -0.12 ± 0.017
14 | CTGAAGGA | -0.28 ± 0.03
15 | CATTACAC | 0.243 ± 0.033
16 | GGTTCTAA | -0.119 ± 0.057
17 | CGATATGC | 0.014 ± 0.0068
18 | CCTCTTTC | -0.0462 ± 0.035
19 | GTCCACCA | -0.164 ± 0.053
20 | CAGTTTGG | 0.047 ± 0.035
21 | GCGTGAGC | 0.286 ± 0.028
22 | AAATGCTG | -0.18 ± 0.0037
23 | AGCGATGG | 0.0111 ± 0.057
24 | CTGGCCGC | -0.136 ± 0.07
25 | CTCAGTAA | -0.118 ± 0.042

Row | Sequence | PBM E-score of 8-mer
26 | GAATAAGA | -0.0605 ± 0.062
27 | CTTGGTGA | 0.0436 ± 0.052
28 | AATTAAGC | -0.157 ± 0.041
29 | CCTGAGTA | -0.132 ± 0.056
30 | CCGGAAGG | -0.208 ± 0.045
31 | AACTATGC | 0.00206 ± 0.056
32 | CTTTAACC | -0.285 ± 0.062
33 | ACGTTGAG | 0.0145 ± 0.014
34 | AAGCCAAA | -0.1689 ± 0.00031
35 | CATAGCCC | -0.0201 ± 0.11
36 | ATAAACTG | -0.121 ± 0.14
37 | TAGAATAA | -0.176 ± 0.13
38 | AAATTATA | -0.166 ± 0.028
39 | CATCTGGC | -0.176 ± 0.015
40 | CATTTCGA | -0.00162 ± 0.0068
41 | CTGGAATC | -0.0874 ± 0.041
42 | TCATTGAA | -0.129 ± 0.0043
43 | GAGCGGGA | 0.0728 ± 0.0082
44 | CACAGGCC | -0.0537 ± 0.057
45 | GGGCACAC | 0.11 ± 0.0059
46 | ACCCTTTA | 0.147 ± 0.041
47 | ACGGCAAA | -0.162 ± 0.058
48 | AGCCCCCC | -0.197 ± 0.046
49 | CAATATCG | 0.0294 ± 0.062
50 | ATTATAAG | -0.28 ± 0.029

Row | Sequence | PBM E-score of 8-mer
51 | GCTTAGGA | -0.107 ± 0.059
52 | CCATTACA | -0.061 ± 0.054
53 | CGGAGCCA | -0.164 ± 0.067
54 | GAGGGCAC | -0.124 ± 0.058
55 | CCTATGCG | 0.00647 ± 0.019
56 | AACCGTCG | 0.0986 ± 0.06
57 | ATCCCGCA | -0.139 ± 0.033
58 | CATCGTGC | -0.00918 ± 0.0049
59 | AAAAGCGA | -0.0551 ± 0.1
60 | GTCCTTGA | -0.153 ± 0.03
61 | CGCAGAGC | -0.0851 ± 0.07
62 | CTAACTGC | 0.068 ± 0.011
63 | AACCCCCC | -0.177 ± 0.0031
64 | ATGCCCCC | -0.25 ± 0.0037
65 | GCATCTTA | -0.111 ± 0.022
66 | ACCTACAG | 0.0962 ± 0.0064
67 | CTCCGTGA | 0.0421 ± 0.026
68 | CCAATTAC | -0.0394 ± 0.025
69 | AATGGTAG | -0.0184 ± 0.033
70 | GTCGCTGA | 0.112 ± 0.0096
71 | GACCACAA | 0.016 ± 0.03
72 | CATCAAGG | -0.175 ± 0.019
73 | GTACTAAC | -0.109 ± 0.035
74 | ACATACAG | 0.0295 ± 0.021
75 | GAGACTAC | -0.194 ± 0.044

Row | Sequence | PBM E-score of 8-mer
76 | CCGAAAAC | -0.103 ± 0.0052
77 | AAGACTGA | -0.182 ± 0.0036
78 | CAGAACGC | -0.12 ± 0.029
79 | GAACCCGA | 0.122 ± 0.0022
80 | GCACTACC | 0.0381 ± 0.028
81 | AGGTAACA | 0.283 ± 0.0031
82 | GAATGAAC | -0.175 ± 0.0039
83 | GCAATCCC | -0.149 ± 0.0016
84 | AAGCAGCG | 0.0896 ± 0.051
85 | ACAGTCGA | 0.0199 ± 0.0077
86 | AAAAGAAA | -0.0891 ± 0.091
87 | CTGTTCTC | 0.0498 ± 0.021
88 | CGCGAACC | 0.375 ± 0.013
89 | AAGTTTTC | 0.00021 ± 0.035
90 | CGACAAAG | 0.158 ± 0.034
91 | ATTCCTGC | -0.175 ± 0.081
92 | CCCTCGGC | -0.147 ± 0.015
93 | GAGTCTCC | -0.236 ± 0.025
94 | CAAATCTA | -0.0867 ± 0.04
95 | GCAAACAC | 0.258 ± 0.0091
96 | ACGCAAAG | -0.095 ± 0.035
97 | AAAGTCCT | -0.289 ± 0.0026
98 | GTGTCTAA | 0.199 ± 0.025
99 | ACGACTTG | 0.201 ± 0.046
100 | CATGAAGA | -0.0154 ± 0.063

Row | Sequence | PBM E-score of 8-mer
101 | AAGGGAGT | 0.0381 ± 0.087
102 | GTCCTATA | -0.386 ± 0.0075
103 | AGACGAAG | -0.156 ± 0.084
104 | AAATGCAA | -0.164 ± 0.052
105 | CGACGATA | 0.0611 ± 0.037
106 | AACGTGGA | -0.151 ± 0.012
107 | AGTTCTGA | -0.131 ± 0.043
108 | CGCGTATC | 0.217 ± 0.039
109 | AGGTAATC | -0.0113 ± 0.0055
110 | ATTCCGGG | -0.236 ± 0.0029
111 | AAAGGGCA | -0.0549 ± 0.02
112 | ATAAGACA | -0.231 ± 0.037
113 | CAACTTCA | -0.0174 ± 0.018
114 | TGGGAACA | 0.156 ± 0.027
115 | CTGCTTAC | 0.00038 ± 0.057
116 | AGCCCACG | -0.216 ± 0.05
117 | ACAACAGC | 0.207 ± 0.0049
118 | CCGTCGAA | -0.191 ± 0.048
119 | AAATATTA | -0.00859 ± 0.047
120 | ACGAGGTA | -0.0678 ± 0.011
121 | ATCAATCC | -0.172 ± 0.082
122 | CATATTTC | 0.00998 ± 0.024
123 | CCGATTGC | -0.0202 ± 0.054
124 | CAACAATG | 0.0633 ± 0.018
125 | CGTTCCCA | 0.0732 ± 0.0075

Row | Sequence | PBM E-score of 8-mer
126 | CCCCATAG | -0.106 ± 0.053
127 | GTGGACAC | 0.2 ± 0.025
128 | AGCATCAG | -0.168 ± 0.013
129 | ATAGTCCA | -0.213 ± 0.016
130 | CTATAGGC | -0.15 ± 0.022
131 | CTTGAAAG | -0.132 ± 0.02
132 | CCACCGAG | -0.103 ± 0.15
133 | GCGCGAGC | 0.298 ± 0.053
134 | ACACTATG | 0.339 ± 0.025
135 | ACTTGTAT | -0.13 ± 0.024
136 | GGGCAACC | -0.156 ± 0.12
137 | AGCTCAAG | -0.19 ± 0.025
138 | CCGCAAAC | 0.00862 ± 0.081
139 | TACCCAAA | -0.247 ± 0.021
140 | GGGGTGAC | 0.293 ± 0.043
141 | CTGAGTTC | -0.0724 ± 0.1
142 | CTCACTCC | 0.1631 ± 0.0014
143 | GCACGCGA | 0.186 ± 0.025
144 | CTAAGTCC | -0.306 ± 0.026
145 | CCCTGGAA | -0.2852 ± 0.0011
146 | AGCACGGA | -0.151 ± 0.074
147 | ACACACCC | 0.33 ± 0.0064
148 | TGGATAAA | -0.228 ± 0.029
149 | ACGTATCC | -0.203 ± 0.053
150 | CGTTGTCC | -0.0704 ± 0.064

Row | Sequence | PBM E-score of 8-mer
151 | CCCGGGAC | -0.243 ± 0.021
152 | TCACAAAA | 0.0827 ± 0.084
153 | CTTGTGTC | 0.0961 ± 0.026
154 | CCTGCCGA | -0.097 ± 0.019
155 | TCCATAGA | -0.123 ± 0.0071
156 | GTACACTA | -0.0864 ± 0.057
157 | CTATGGCC | -0.101 ± 0.041
158 | CCCGAGGC | 0.135 ± 0.022
159 | ATGCCAAG | -0.291 ± 0.022
160 | CCAACTCG | 0.0776 ± 0.035
161 | ACGGGTTA | -0.113 ± 0.063
162 | TAGTGTGA | 0.453 ± 0.011
163 | AGTCGCGA | 0.352 ± 0.014
164 | AGCTATCC | -0.276 ± 0.083
165 | ACAAATGG | -0.0752 ± 0.018
166 | CTGTACTA | -0.129 ± 0.071
167 | CTACACGC | 0.163 ± 0.011
168 | AAGTTACA | 0.0132 ± 0.058
169 | GATTAAAA | -0.0805 ± 0.057
170 | CACATGGC | 0.194 ± 0.019
171 | AGAAGACC | -0.19 ± 0.066
172 | AGGTTCAT | -0.0844 ± 0.077
